From PubChem BioAssay AID1477 (National Center for Advancing Translational Sciences (NCATS), 2009)
Out of some 230,000 compounds screened, fewer than 10 were called active. This list was built around the results that the source calls inconclusive (neither active nor inactive); the mix of calls is not that of the screen. Calls come from the whole dose curve; as a rule, active = well fitted curve in the direction sought with a large enough effect; inconclusive = small, poorly fitted or top-dose-only effect, or effect the other way, or another doubt; inactive = no such curve, though single readings can be large or run the other way. Potencies of inconclusive entries are left out as doubtful fits.

Biological target: Runt-related transcription factor 1 (Homo sapiens) + Core-binding factor subunit beta (Homo sapiens) (UniProt Q01196+Q13951)
Assay: qHTS Assay for Compounds Blocking the Interaction Between CBF-beta and RUNX1 for the Treatment of Acute Myeloid Leukemia
Conditions: AlphaScreen CBFb-His/RUNX1-biotin binding, biochemical; series mostly up to 59.8 µM
Outline: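 Bead-based AlphaScreen assay; binding partners His-tagged CBF-beta and biotinylated RUNX1 at 30 nM each. Compound exposure 15 min after a 20-min protein preincubation; bead step 90 min; all steps at room temperature.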

Sequence of UniProt Q01196 (Q01196 whole entry, looked up): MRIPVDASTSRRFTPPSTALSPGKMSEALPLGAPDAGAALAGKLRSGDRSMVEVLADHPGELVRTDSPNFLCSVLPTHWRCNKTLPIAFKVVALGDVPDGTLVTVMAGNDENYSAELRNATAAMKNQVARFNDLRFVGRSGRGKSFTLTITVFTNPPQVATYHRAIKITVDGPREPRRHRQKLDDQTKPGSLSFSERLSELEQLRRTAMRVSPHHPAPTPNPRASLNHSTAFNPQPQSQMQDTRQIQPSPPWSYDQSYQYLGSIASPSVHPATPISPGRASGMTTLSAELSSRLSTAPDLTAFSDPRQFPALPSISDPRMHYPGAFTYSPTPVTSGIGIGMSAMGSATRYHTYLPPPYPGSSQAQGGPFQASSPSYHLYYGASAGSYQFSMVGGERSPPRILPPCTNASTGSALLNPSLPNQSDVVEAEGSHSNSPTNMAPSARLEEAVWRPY
Sequence of UniProt Q01196 (Q13951 whole entry, looked up): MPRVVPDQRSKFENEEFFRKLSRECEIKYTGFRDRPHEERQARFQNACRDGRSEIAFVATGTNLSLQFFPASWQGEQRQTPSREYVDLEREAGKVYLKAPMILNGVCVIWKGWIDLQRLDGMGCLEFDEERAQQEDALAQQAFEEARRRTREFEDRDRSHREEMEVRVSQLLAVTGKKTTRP

| Compound | Potency |
| --- | --- |
| CC(C)c1ccc(/C=N/Nc2ccc(C(=O)O)cc2)cc1 | inactive |
| Clc1ccccc1OCc1nc(-c2ccncc2)no1 | inactive |
| O=c1c2c([nH]c3ccccc13)C(=C1CCCC1)CC2 | inconclusive [inhibitor, single point] |
| Cc1ccc2c(Cl)cc(Cl)c(OCC(=O)NC(C)(C)C)c2n1 | inactive |
| Cc1ccc(C)c(/C=C/C(=O)c2ccccc(=O)c2O)c1 | inactive |
| Nc1ccc2nn(-c3ccc(Cl)cc3)nc2c1 | inconclusive [activator, partial curve] |
| Cc1ccc(/C=C2/CNC/C(=C\c3ccc(C)cc3)C2=O)cc1 | inconclusive [inhibitor, single point] |
| NNC(=O)c1oc2nc(-c3ccccc3)cc(-c3ccco3)c2c1N | inconclusive [inhibitor, single point] |
| O=C1CSC(=S)N1/N=C/c1ccc(Cl)c([N+](=O)[O-])c1 | inconclusive [inhibitor, single point] |
| Nc1cc(N2CCCC2)c(Cl)cc1[N+](=O)[O-] | inconclusive [inhibitor, single point] |
| COC(=O)c1ccc(NC(=O)CN2CCC(NC(=O)c3ccco3)CC2)cc1 | inactive |
| COc1ccc(/C=C/C(=O)OCc2csc(-c3ccccc3)n2)cc1OC | inconclusive [activator, single point] |
| NC(=O)c1c(NC(=O)CSc2nnc(Cc3ccccc3)n2Cc2ccco2)sc2c1CCC2 | inconclusive [inhibitor, single point] |
| Cc1ccccc1OCCNc1cc(N2CCCCC2)ccc1[N+](=O)[O-] | inconclusive [inhibitor, partial curve] |
| CCCCn1nc(NC(=O)c2cccs2)c2cc3ccccc3nc21 | inconclusive [activator, partial curve] |
| Cc1ncc(CO)c(/C=N/NC(=O)c2cc(Br)ccc2O)c1O | inconclusive [inhibitor, single point] |
| COc1cc(/C=N/Nc2ccc(C(=O)O)cc2)ccc1O | inconclusive [inhibitor, single point] |
| Clc1ccc(-c2cc(CSc3cccc(Cl)c3)on2)cc1 | inconclusive [activator, single point] |
| O=C(NC(=S)Nc1ccccc1N1CCCC1)c1cccc(F)c1 | inconclusive [inhibitor, single point] |
| CCCN1C(=O)S/C(=C/c2ccc(N3CCOCC3)o2)C1=O | inactive |
| CCN(CC)c1ccc(/C=C(\C#N)C(=O)NCc2ccccc2)cc1 | inconclusive [activator, partial curve] |
| CCCCCC(=O)N1CCN(CCN=CC2=C(O)CC(c3ccc(OC)c(OC)c3)CC2=O)CC1 (configuration not stated) | inactive |
| CN(c1ccccc1)S(=O)(=O)c1cccc(NC(=O)Cn2cnc3c2c(=O)n(C)c(=O)n3C)c1 | inactive |
| CCOP(=S)(OCC)O/N=C(\C#N)c1ccccc1Cl | inconclusive [activator, partial curve] |

| Compound | Potency |
| --- | --- |
| O=C1NC(=O)N(CCC2=CCCCC2)C(=O)/C1=C/c1ccc(O)cc1 | inconclusive [inhibitor, single point] |
| CCOC(=O)c1ccc(N/N=C/c2cc(Br)cc([N+](=O)[O-])c2O)cc1 | inconclusive [inhibitor, single point] |
| CN(C)C(=S)NC(=O)C12CC3(C)CC(C)(CC(C)(C3)C1)C2 | inactive |
| COc1cc2c(cc1NC(=O)c1ccccc1F)CCCC2 | inconclusive [activator, partial curve, poor fit] |
| COC(=O)c1ccc(S(=O)(=O)N2CCC(C(N)=O)CC2)n1C | inconclusive [activator, partial curve, poor fit] |
| CC1(O)CCC(C(C)(C)O)CC1 (configuration not stated) | inconclusive [activator, full curve, poor fit] |
| Cc1nn(Cc2ccccc2)c(C)c1NC(=O)CSc1nc(C2CC2)nc2c1cnn2-c1ccccc1 | inactive |
| COC(=O)CSc1nc2c(c(=O)n(C)c(=O)n2C)n1CCC(C)C | inconclusive [activator, partial curve] |
| CCCN1C=CC(=C/C=C(\C#N)C(=O)OCC)C=C1 | inactive |
| C=C(C)C1CC=C(C)/C(=N/NC(=O)c2ccc(NC(=O)CC)cc2)C1 (configuration not stated) | inactive |
| CCOC(=O)/C(N=Nc1ccc2c(c1)OCO2)=C(\C)O | inconclusive [inhibitor, single point] |
| Cc1cc(C)c(C#N)c(SCc2ccccc2C)n1 | inconclusive [activator, partial curve] |
| O=C(NNC(=O)c1cc2cc(Br)ccc2oc1=O)c1ccc(O)cc1O | inconclusive [inhibitor, single point] |
| COc1ccc(-c2cc(-c3ccc(N)cc3)nc(N)c2C#N)cc1OC | inconclusive [activator, partial curve] |
| O=c1[nH]c2ccccc2c(O)c1-[n+]1ccccc1 | inactive |
| CC(=Nc1ccc(C)cc1)c1sc2ccccc2c1O | inconclusive [activator, partial curve] |
| Cc1ccc(C(=O)CC(=O)COc2ccc(Cl)cc2)cc1 | inactive |
| COc1ccc(-c2ccc(-c3noc(-c4ccccc4)n3)c(OC)n2)cc1 | inconclusive [inhibitor, single point] |
| CN1CCCN(C(=O)/C=C/c2ccc(Cl)cc2Cl)CC1 | inconclusive [inhibitor, full curve, poor fit] |
| CCN1/C(=C/c2cc[n+](C)cc2)C=Cc2cc(C)ccc21 | inactive |
| CCCCC/C=C\C/C=C\CCCCCCCCCC(=O)NCCCC(=O)O | inactive |
| Cc1cc2c3nonc3ccc2n1-c1ccccc1 | inconclusive [activator, partial curve] |
| Cc1ccc(S(=O)(=O)Nc2ccc3oc(=O)sc3c2)c(C)c1 | inconclusive [inhibitor, single point] |
